Series [1] is described as follows: xn = mol fraction of the nth substance listed. Particulars: 298.15 K; 101.33 kPa; x1 = 0.7.

± gives the uncertainty stated by the source. Some entries of the source have several records that differ or are many. This list holds those alone. There may be further records. Values given together are repeated measurements (runs, samples, wells, individuals or studies). Brackets tell where a record comes from. A, B and so on number the origins entry by entry.

For the compound `c1ccc(Oc2ccccc2)cc1`, the viscosity (298.15 K, 101 kPa) is 0.538 ± 0.014 mPa·s [study A] and 3.66 ± 0.097 mPa·s [study B]. As for `NC(N)=O` + C[N+](C)(C)CCO.[Cl-], the viscosity in series [1] is 750 ± 99 mPa·s [study A] and 99.47 mPa·s [study B].

On to `CCCCCCCCCCO`, for which the viscosity is, setting by setting: (303.15 K, 101 kPa) 8.843 ± 1.8 mPa·s [study A] and 9.552 ± 0.7 mPa·s [study B] and 9.066 ± 0.085 mPa·s [study C] and 9.715 ± 0.19 mPa·s [study D] and 9.066 ± 0.049 mPa·s [study E]; (303.15 K, 101.33 kPa) 9.652 ± 1 mPa·s [study A] and 8.835 ± 0.048 mPa·s [study B] and 8.835 ± 0.058 mPa·s [study C] and 8.835 ± 0.087 mPa·s [study D] and 8.843 ± 0.089 mPa·s [study E]. Take `OCCOCCOCCO`: the viscosity (293.15 K, 101 kPa) is 46.7 ± 1 mPa·s [study A] and 41.1 ± 0.27 mPa·s [study B] and 41.01 ± 0.27 mPa·s [study C] and 41.01 ± 0.4 mPa·s [study D] and 41.01 ± 0.27 mPa·s [study E]; the viscosity (303.15 K, 101 kPa) was 29.2 ± 0.7 mPa·s [study A] and 29.24 ± 0.19 mPa·s [study B] and 29.24 ± 0.19 mPa·s [study C] and 29.24 ± 0.19 mPa·s [study D] and 29.24 ± 0.3 mPa·s [study E] and 29.24 ± 0.19 mPa·s [study F] and 29.18 ± 0.23 mPa·s [study G]. Turning to `Cc1ccccc1C`, the viscosity (313.15 K, 101 kPa) is 0.626 ± 0.006 mPa·s [study A] and 0.625 ± 0.013 mPa·s [study B] and 0.6262 ± 0.0083 mPa·s [study C] and 0.6261 ± 0.017 mPa·s [study D] and 0.5892 ± 0.009 mPa·s [study E]; the viscosity (323.15 K, 101 kPa) is 0.559 ± 0.006 mPa·s [study A] and 0.5586 ± 0.0074 mPa·s [study B] and 0.5584 ± 0.015 mPa·s [study C] and 0.5177 ± 0.0082 mPa·s [study D].

Take `CCCCCCCCCCCC`: the viscosity (308.15 K, 101.33 kPa) is 1.106 ± 0.014 mPa·s [study A] and 1.113 ± 0.027 mPa·s [study B] and 1.122 ± 0.016 mPa·s [study C] and 1.111 ± 0.022 mPa·s [study D].

The term viscosity denotes the resistance of a fluid to flow. Low readings indicate a thin fluid, high ones a thick fluid.

The record behind these values is the CheMixHub viscosity set.
